The least precise scores are not listed. The source holds two more conditions with little spread; they are left out. Read del as a deletion of the residues named and ins as an insertion between two positions. For some of these results: How much ogerin was present is not stated here.
B1: GPR68, Q15743 (parent)
chain: MGNITADNSSMSCTIDHTIHQTLAPVVYVTVLVVGFPANCLSLYFGYLQIKARNELGVYLCNLTVADLFYICSLPFWLQYVLQHDNWSHGDLSCQVCGILLYENIYISVGFLCCISVDRYLAVAHPFRFHQFRTLKAAVGVSVVIWAKELLTSIYFLMHEEVIEDENQHRVCFEHYPIQAWQRAINYYRFLVGFLFPICLLLASYQGILRAVRRSHGTQKSRKDQIQRLVLSTVVIFLACFLPYHVLLLVRSVWEASCDFAKGVFNAYHFSLLLTSFNCVADPVLYCFVSETTHRDLARLRGACLAFLTCSRTGRAREAYPLGAPEASGKSGAQGEEPELLTKLHPAFQTPNSPGSGGFPTGRLA

How the values were obtained:
[1] = variants of: B1; assay: cAMP reporter score (Enrich2 score, wild type = 0); higher = more signal; HEK293T, FACS bins
[2] = variants of: B1; assay: surface expression score (Enrich2 score, wild type = 0); higher = more signal; HEK293T, FACS bins

F288_V289insG
cAMP reporter score ([1]; pH 5.5): -0.786 | cAMP reporter score ([1]; pH 6): -0.467 | cAMP reporter score ([1]; pH 6, modulator: ogerin): -0.772 | cAMP reporter score ([1]; pH 6.5, modulator: ogerin): -1.33

V289del
cAMP reporter score ([1]; pH 5.5): -1.21 | cAMP reporter score ([1]; pH 6): -0.719 | cAMP reporter score ([1]; pH 6, modulator: ogerin): -1.98 | cAMP reporter score ([1]; pH 6.5, modulator: ogerin): -2.88 | surface expression score [2]: -0.409

Y286_F288del
cAMP reporter score ([1]; pH 5.5): -1.53 | cAMP reporter score ([1]; pH 6): -0.971 | cAMP reporter score ([1]; pH 6, modulator: ogerin): -1.61 | cAMP reporter score ([1]; pH 6.5, modulator: ogerin): -0.917 | surface expression score [2]: -2.18

C287_F288insGSG
cAMP reporter score ([1]; pH 5.5): -1.4 | cAMP reporter score ([1]; pH 6): -0.525 | cAMP reporter score ([1]; pH 6, modulator: ogerin): -1.2 | cAMP reporter score ([1]; pH 6.5, modulator: ogerin): -0.844 | surface expression score [2]: -2.42

P283D
cAMP reporter score ([1]; pH 5.5): -1.34 | cAMP reporter score ([1]; pH 6): -0.962 | cAMP reporter score ([1]; pH 6, modulator: ogerin): -0.876 | cAMP reporter score ([1]; pH 6.5, modulator: ogerin): -1.51 | surface expression score [2]: -2.03

P283R
cAMP reporter score ([1]; pH 5.5): -1.16 | cAMP reporter score ([1]; pH 6, modulator: ogerin): -0.782 | cAMP reporter score ([1]; pH 6.5, modulator: ogerin): -1.14 | surface expression score [2]: -2.32

P283L
cAMP reporter score ([1]; pH 5.5): -1.86 | cAMP reporter score ([1]; pH 6): -0.711 | cAMP reporter score ([1]; pH 6, modulator: ogerin): -1.8 | cAMP reporter score ([1]; pH 6.5, modulator: ogerin): -1.07 | surface expression score [2]: -2.27

P283H
cAMP reporter score ([1]; pH 5.5): -1.14 | cAMP reporter score ([1]; pH 6): -0.514 | cAMP reporter score ([1]; pH 6, modulator: ogerin): -1.2 | cAMP reporter score ([1]; pH 6.5, modulator: ogerin): -0.88 | surface expression score [2]: -1.51

P283E
cAMP reporter score ([1]; pH 5.5): -1.38 | cAMP reporter score ([1]; pH 6): -1.45 | cAMP reporter score ([1]; pH 6, modulator: ogerin): -0.89 | cAMP reporter score ([1]; pH 6.5, modulator: ogerin): -1.56 | surface expression score [2]: -1.95

P283Y
cAMP reporter score ([1]; pH 5.5): -2.1 | cAMP reporter score ([1]; pH 6): -1.26 | cAMP reporter score ([1]; pH 6, modulator: ogerin): -1.8 | cAMP reporter score ([1]; pH 6.5, modulator: ogerin): -1.48 | surface expression score [2]: -1.08

P283M
cAMP reporter score ([1]; pH 5.5): -2.72 | cAMP reporter score ([1]; pH 6): -1.22 | cAMP reporter score ([1]; pH 6, modulator: ogerin): -2.6 | cAMP reporter score ([1]; pH 6.5, modulator: ogerin): -1.96 | surface expression score [2]: -1.1

P283K
cAMP reporter score ([1]; pH 5.5): -1.19 | cAMP reporter score ([1]; pH 6): -1.08 | cAMP reporter score ([1]; pH 6, modulator: ogerin): -0.91 | cAMP reporter score ([1]; pH 6.5, modulator: ogerin): -1.92 | surface expression score [2]: 0.033

P283N
cAMP reporter score ([1]; pH 5.5): -0.973 | cAMP reporter score ([1]; pH 6): -0.297 | cAMP reporter score ([1]; pH 6, modulator: ogerin): -1.67 | cAMP reporter score ([1]; pH 6.5, modulator: ogerin): -0.523 | surface expression score [2]: -1.31

P283Q
cAMP reporter score ([1]; pH 5.5): -0.415 | cAMP reporter score ([1]; pH 6): -1.64 | cAMP reporter score ([1]; pH 6, modulator: ogerin): -0.758 | cAMP reporter score ([1]; pH 6.5, modulator: ogerin): -1.42 | surface expression score [2]: -3.91

P283S
cAMP reporter score ([1]; pH 5.5): -0.663 | cAMP reporter score ([1]; pH 6): 0.266 | cAMP reporter score ([1]; pH 6, modulator: ogerin): -1.14 | cAMP reporter score ([1]; pH 6.5, modulator: ogerin): -0.872

P283T
cAMP reporter score ([1]; pH 5.5): -1.51 | cAMP reporter score ([1]; pH 6): -1.36 | cAMP reporter score ([1]; pH 6, modulator: ogerin): -1.77 | cAMP reporter score ([1]; pH 6.5, modulator: ogerin): -1.57 | surface expression score [2]: -1.33

P283W
cAMP reporter score ([1]; pH 5.5): -0.701 | cAMP reporter score ([1]; pH 6): -0.55 | cAMP reporter score ([1]; pH 6.5, modulator: ogerin): -0.811 | surface expression score [2]: -1.82

P283G
cAMP reporter score ([1]; pH 5.5): 0.347 | cAMP reporter score ([1]; pH 6): 0.283 | cAMP reporter score ([1]; pH 6, modulator: ogerin): -0.451 | cAMP reporter score ([1]; pH 6.5, modulator: ogerin): -0.462 | surface expression score [2]: -1.79

P283F
cAMP reporter score ([1]; pH 5.5): -1.67 | cAMP reporter score ([1]; pH 6): -0.737 | cAMP reporter score ([1]; pH 6, modulator: ogerin): -0.699 | cAMP reporter score ([1]; pH 6.5, modulator: ogerin): -0.674 | surface expression score [2]: -1.94

P283V
cAMP reporter score ([1]; pH 5.5): -1.3 | cAMP reporter score ([1]; pH 6): -1.21 | cAMP reporter score ([1]; pH 6, modulator: ogerin): -1.54 | cAMP reporter score ([1]; pH 6.5, modulator: ogerin): -1.81 | surface expression score [2]: -1.35

P283C
cAMP reporter score ([1]; pH 5.5): -2.35 | cAMP reporter score ([1]; pH 6): -0.987 | cAMP reporter score ([1]; pH 6, modulator: ogerin): -1.33 | cAMP reporter score ([1]; pH 6.5, modulator: ogerin): -0.683

D282_P283insG
cAMP reporter score ([1]; pH 5.5): -1.46 | cAMP reporter score ([1]; pH 6): -0.869 | cAMP reporter score ([1]; pH 6, modulator: ogerin): -1.57 | cAMP reporter score ([1]; pH 6.5, modulator: ogerin): -0.777 | surface expression score [2]: -2.15

T292_H294del
cAMP reporter score ([1]; pH 5.5): -1.64 | cAMP reporter score ([1]; pH 6): -0.641 | cAMP reporter score ([1]; pH 6, modulator: ogerin): -1.58 | cAMP reporter score ([1]; pH 6.5, modulator: ogerin): -1.44 | surface expression score [2]: 0.227

D282del
cAMP reporter score ([1]; pH 5.5): -1.52 | cAMP reporter score ([1]; pH 6): -1.13 | cAMP reporter score ([1]; pH 6, modulator: ogerin): -1.1 | cAMP reporter score ([1]; pH 6.5, modulator: ogerin): -0.861 | surface expression score [2]: -0.985

F288_V289insGSG
cAMP reporter score ([1]; pH 5.5): -0.624 | cAMP reporter score ([1]; pH 6): -0.626 | cAMP reporter score ([1]; pH 6, modulator: ogerin): -1.43 | cAMP reporter score ([1]; pH 6.5, modulator: ogerin): -1.19 | surface expression score [2]: -1.76

P283_V284del
cAMP reporter score ([1]; pH 5.5): -2.09 | cAMP reporter score ([1]; pH 6): -1.33 | cAMP reporter score ([1]; pH 6.5, modulator: ogerin): -0.833 | surface expression score [2]: -2.47

P283_V284insG
cAMP reporter score ([1]; pH 5.5): -1.56 | cAMP reporter score ([1]; pH 6): -0.948 | cAMP reporter score ([1]; pH 6, modulator: ogerin): -1.67 | cAMP reporter score ([1]; pH 6.5, modulator: ogerin): -1.3 | surface expression score [2]: -2.27

R295_D296insGSG
cAMP reporter score ([1]; pH 5.5): -0.559 | cAMP reporter score ([1]; pH 6): -0.49 | cAMP reporter score ([1]; pH 6, modulator: ogerin): -0.765 | cAMP reporter score ([1]; pH 6.5, modulator: ogerin): -0.891 | surface expression score [2]: 0.475

L285_Y286del
cAMP reporter score ([1]; pH 5.5): -1.76 | cAMP reporter score ([1]; pH 6): -0.588 | cAMP reporter score ([1]; pH 6, modulator: ogerin): -1.54 | cAMP reporter score ([1]; pH 6.5, modulator: ogerin): -1.2 | surface expression score [2]: -2.19

V284A
cAMP reporter score ([1]; pH 5.5): -0.548 | cAMP reporter score ([1]; pH 6, modulator: ogerin): -0.057 | cAMP reporter score ([1]; pH 6.5, modulator: ogerin): -0.986 | surface expression score [2]: -0.137

V284P
cAMP reporter score ([1]; pH 5.5): -0.104 | cAMP reporter score ([1]; pH 6): 0.211 | cAMP reporter score ([1]; pH 6, modulator: ogerin): -1.12 | cAMP reporter score ([1]; pH 6.5, modulator: ogerin): -0.729 | surface expression score [2]: -1.81

Source: the GPR68 mutational scans of Howard et al. (2025)
